Measurements from article PMC9911399, “Two distinct binding modes provide the RNA-binding protein RbFox with extraordinary sequence specificity”.
Changes are numbered by the printed parent chain; changes in the protein carry UniProt numbers. Some of the results follow.

B1: UAACUAC (DNA:RNA)
RNA: GGGAGACCGGAAUUCAGAUUGUCCUAACUACUUAAAUCCCGUCGUAGCCACCA
DNA 1: CAATCTGAATTCCGGTCTCCC
DNA 2: TGGTGGCTACGACGGGATT
B2: CCAAGUC (DNA:RNA)
RNA: B1 RNA with U25C, A26C, C28A, U29G, A30U
DNA 1: CAATCTGAATTCCGGTCTCCC
DNA 2: TGGTGGCTACGACGGGATT
B3: ACCCCGU (DNA:RNA)
RNA: B1 RNA with U25A, A26C, A27C, U29C, A30G, C31U
DNA 1: CAATCTGAATTCCGGTCTCCC
DNA 2: TGGTGGCTACGACGGGATT
B4: UGGGGCC (DNA:RNA)
RNA: B1 RNA with A26G, A27G, C28G, U29G, A30C
DNA 1: CAATCTGAATTCCGGTCTCCC
DNA 2: TGGTGGCTACGACGGGATT
B5: CAGGUGA (DNA:RNA)
RNA: B1 RNA with U25C, A27G, C28G, A30G, C31A
DNA 1: CAATCTGAATTCCGGTCTCCC
DNA 2: TGGTGGCTACGACGGGATT
B6: CUAUGCG (DNA:RNA)
RNA: B1 RNA with U25C, A26U, C28U, U29G, A30C, C31G
DNA 1: CAATCTGAATTCCGGTCTCCC
DNA 2: TGGTGGCTACGACGGGATT
B7: AUCAAGG (DNA:RNA)
RNA: GGGAGACCGGAAUUCAGAUUGUCCAUCAAGGUUAAAUCCCGUCGUAGCCACCA
DNA 1: CAATCTGAATTCCGGTCTCCC
DNA 2: TGGTGGCTACGACGGGATT
B8: GAGGAGC (DNA:RNA)
RNA: B7 RNA with A25G, U26A, C27G, A28G, G31C
DNA 1: CAATCTGAATTCCGGTCTCCC
DNA 2: TGGTGGCTACGACGGGATT
B9: GCAUUGA (DNA:RNA)
RNA: B1 RNA with U25G, A26C, C28U, A30G, C31A
DNA 1: CAATCTGAATTCCGGTCTCCC
DNA 2: TGGTGGCTACGACGGGATT
B10: GGCCGUC (DNA:RNA)
RNA: B1 RNA with U25G, A26G, A27C, U29G, A30U
DNA 1: CAATCTGAATTCCGGTCTCCC
DNA 2: TGGTGGCTACGACGGGATT
B11: UUUCGUU (DNA:RNA)
RNA: B1 RNA with A26U, A27U, U29G, A30U, C31U
DNA 1: CAATCTGAATTCCGGTCTCCC
DNA 2: TGGTGGCTACGACGGGATT
B12: UCUUGUU (DNA:RNA)
RNA: B1 RNA with A26C, A27U, C28U, U29G, A30U, C31U
DNA 1: CAATCTGAATTCCGGTCTCCC
DNA 2: TGGTGGCTACGACGGGATT
B13: GGCUGCC (DNA:RNA)
RNA: B7 RNA with A25G, U26G, A28U, A29G, G30C, G31C
DNA 1: CAATCTGAATTCCGGTCTCCC
DNA 2: TGGTGGCTACGACGGGATT
B14: CCCAAGC (DNA:RNA)
RNA: B7 RNA with A25C, U26C, G31C
DNA 1: CAATCTGAATTCCGGTCTCCC
DNA 2: TGGTGGCTACGACGGGATT
B15: GAUGUGU (DNA:RNA)
RNA: B1 RNA with U25G, A27U, C28G, A30G, C31U
DNA 1: CAATCTGAATTCCGGTCTCCC
DNA 2: TGGTGGCTACGACGGGATT
B16: AACGACU (DNA:RNA)
RNA: B7 RNA with U26A, A28G, G30C, G31U
DNA 1: CAATCTGAATTCCGGTCTCCC
DNA 2: TGGTGGCTACGACGGGATT
B17: UGAGACU (DNA:RNA)
RNA: B1 RNA with A26G, C28G, U29A, A30C, C31U
DNA 1: CAATCTGAATTCCGGTCTCCC
DNA 2: TGGTGGCTACGACGGGATT
B18: ACGAAGC (DNA:RNA)
RNA: B7 RNA with U26C, C27G, G31C
DNA 1: CAATCTGAATTCCGGTCTCCC
DNA 2: TGGTGGCTACGACGGGATT
B19: UAUGGGC (DNA:RNA)
RNA: B1 RNA with A27U, C28G, U29G, A30G
DNA 1: CAATCTGAATTCCGGTCTCCC
DNA 2: TGGTGGCTACGACGGGATT
B20: UUCCGGA (DNA:RNA)
RNA: B7 RNA with A25U, A28C, A29G, G31A
DNA 1: CAATCTGAATTCCGGTCTCCC
DNA 2: TGGTGGCTACGACGGGATT
B21: CCUGUUU (DNA:RNA)
RNA: B1 RNA with U25C, A26C, A27U, C28G, A30U, C31U
DNA 1: CAATCTGAATTCCGGTCTCCC
DNA 2: TGGTGGCTACGACGGGATT
B22: UGACCCG (DNA:RNA)
RNA: B1 RNA with A26G, U29C, A30C, C31G
DNA 1: CAATCTGAATTCCGGTCTCCC
DNA 2: TGGTGGCTACGACGGGATT
B23: UGCGAAG (DNA:RNA)
RNA: B7 RNA with A25U, U26G, A28G, G30A
DNA 1: CAATCTGAATTCCGGTCTCCC
DNA 2: TGGTGGCTACGACGGGATT
B24: ACAAUCU (DNA:RNA)
RNA: B7 RNA with U26C, C27A, A29U, G30C, G31U
DNA 1: CAATCTGAATTCCGGTCTCCC
DNA 2: TGGTGGCTACGACGGGATT
B25: CACCUAG (DNA:RNA)
RNA: B1 RNA with U25C, A27C, C31G
DNA 1: CAATCTGAATTCCGGTCTCCC
DNA 2: TGGTGGCTACGACGGGATT
B26: CAAUGCU (DNA:RNA)
RNA: B1 RNA with U25C, C28U, U29G, A30C, C31U
DNA 1: CAATCTGAATTCCGGTCTCCC
DNA 2: TGGTGGCTACGACGGGATT
B27: GCGACUA (DNA:RNA)
RNA: B7 RNA with A25G, U26C, C27G, A29C, G30U, G31A
DNA 1: CAATCTGAATTCCGGTCTCCC
DNA 2: TGGTGGCTACGACGGGATT
B28: CAAAGAG (DNA:RNA)
RNA: B1 RNA with U25C, C28A, U29G, C31G
DNA 1: CAATCTGAATTCCGGTCTCCC
DNA 2: TGGTGGCTACGACGGGATT
B29: GAGAGGC (DNA:RNA)
RNA: B7 RNA with A25G, U26A, C27G, A29G, G31C
DNA 1: CAATCTGAATTCCGGTCTCCC
DNA 2: TGGTGGCTACGACGGGATT
B30: CAGCCCG (DNA:RNA)
RNA: B1 RNA with U25C, A27G, U29C, A30C, C31G
DNA 1: CAATCTGAATTCCGGTCTCCC
DNA 2: TGGTGGCTACGACGGGATT
B31: AUGUGCG (DNA:RNA)
RNA: B7 RNA with C27G, A28U, A29G, G30C
DNA 1: CAATCTGAATTCCGGTCTCCC
DNA 2: TGGTGGCTACGACGGGATT

Target: T1, RBFOX1 RRM (Homo sapiens, UniProt Q9NWB1 109-208)
T1 sequence: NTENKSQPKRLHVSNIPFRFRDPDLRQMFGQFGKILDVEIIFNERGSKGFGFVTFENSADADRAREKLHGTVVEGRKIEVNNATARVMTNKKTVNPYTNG
Assay: EMSA; HiTS-Eq, 1 nM pool, 10 min; buffer printed only for the single-RNA assays: 10 mM Tris pH 7.5, 150 mM NaCl, 3.4 mM EDTA, 0.001% NP-40, 30 C
Details: tags: His6 N-terminal (pET28a); label: 5' 32P
Method in brief: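 Relative association constants, normalised to the cognate motif, were derived by comparing read counts of each RNA species with those of the control reaction. The RNA sequenced was the free fraction, separated by 8% native PAGE after a 10 min equilibration in 50 µL of 1 nM 5′-radiolabelled RNA (7 randomized nucleotides) with increasing concentrations of purified wild-type or mutant RbFox RRM.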

Row | Binder | binding signal
1 | B1 | 0.00615 KA relative to UGCAUGU
2 | B2 | 0.00391 KA relative to UGCAUGU
3 | B3 | 0.00267 KA relative to UGCAUGU
4 | B4 | 0.0345 KA relative to UGCAUGU
5 | B5 | 0.0121 KA relative to UGCAUGU
6 | B6 | 0.0112 KA relative to UGCAUGU
7 | B7 | 0.00691 KA relative to UGCAUGU
8 | B8 | 0.0119 KA relative to UGCAUGU
9 | B9 | 0.0124 KA relative to UGCAUGU
10 | B10 | 0.00869 KA relative to UGCAUGU
11 | B11 | 0.015 KA relative to UGCAUGU
12 | B12 | 0.0179 KA relative to UGCAUGU
13 | B13 | 0.012 KA relative to UGCAUGU
14 | B14 | 0.00384 KA relative to UGCAUGU
15 | B15 | 0.018 KA relative to UGCAUGU
16 | B16 | 0.00509 KA relative to UGCAUGU

Row | Binder | binding signal
17 | B17 | 0.0154 KA relative to UGCAUGU
18 | B18 | 0.00256 KA relative to UGCAUGU
19 | B19 | 0.00477 KA relative to UGCAUGU
20 | B20 | 0.00555 KA relative to UGCAUGU
21 | B21 | 0.0126 KA relative to UGCAUGU
22 | B22 | 0.0101 KA relative to UGCAUGU
23 | B23 | 0.0251 KA relative to UGCAUGU
24 | B24 | 0.000686 KA relative to UGCAUGU
25 | B25 | 0.0026 KA relative to UGCAUGU
26 | B26 | 0.00496 KA relative to UGCAUGU
27 | B27 | 0.00785 KA relative to UGCAUGU
28 | B28 | 0.00411 KA relative to UGCAUGU
29 | B29 | 0.00793 KA relative to UGCAUGU
30 | B30 | 0.00699 KA relative to UGCAUGU
31 | B31 | 0.0183 KA relative to UGCAUGU
